Results on 31 sequences are retold here after PMC12820563.

Some of the results follow. The list includes weakly bound sequences.

For the assay, the target named is T1, MBP-FoxP3dN (UniProt Q99JB6).
T1 sequence: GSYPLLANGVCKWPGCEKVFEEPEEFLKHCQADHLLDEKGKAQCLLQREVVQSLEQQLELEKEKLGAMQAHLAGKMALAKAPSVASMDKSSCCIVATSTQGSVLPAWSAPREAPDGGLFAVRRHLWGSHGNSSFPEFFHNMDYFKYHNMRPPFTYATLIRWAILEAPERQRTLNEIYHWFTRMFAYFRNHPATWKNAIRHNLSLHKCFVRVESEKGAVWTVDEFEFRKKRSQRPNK
Put plainly: PD-seq (MBP pull-down with sequencing). Particulars: 20 mM Tris-HCl pH 7.5, 100 mM NaCl, 1.5 mM MgCl2, 0.4 uM protein, 0.1 uM dsDNA library, 30 min, room temperature, amylose pull-down; high values mean tight binding; double strand, one strand shown.
Take “GATGATTGTTCTCCCAGCTGATGAATTCCGGTCCTCGAGTAAACAAATTTTCCTAATCTTTCTGTTCAAGCGCCATCTAC”: the binding signal (RPM ratio (pull-down/input)) worked out at 0.37.
For the sequence “GATGATTGTTCTCCCAGCTGATGAATTCGGCTGGTCGAGTAAACAAATTTTCCTAATCTTTCTGTTCAAGCGCCATCTAC”, the binding signal (RPM ratio (pull-down/input)) is 0.525.
As for “GATGATTGTTCTCCCAGCTGATGAATTAGTATCATCGAGTAAACAAATTTTCCTAATCTTTCTGTTCAAGCGCCATCTAC”, the binding signal (RPM ratio (pull-down/input)) came out at 2.19.
Take “GATGATTGTTCTCCCAGCTGATGAATTTTCCATCTCGAGTAAACAAATTTTCCTAATCTTTCTGTTCAAGCGCCATCTAC”: the binding signal (RPM ratio (pull-down/input)) was found to be 0.27.
As to “GATGATTGTTCTCCCAGCTGATGAATTTGACGCATCGAGTAAACAAATTTTCCTAATCTTTCTGTTCAAGCGCCATCTAC”, the binding signal (RPM ratio (pull-down/input)) was 1.22.
As for “GATGATTGTTCTCCCAGCTGATGAATTTGGAAGGTCGAGTAAACAAATTTTCCTAATCTTTCTGTTCAAGCGCCATCTAC”, the binding signal (RPM ratio (pull-down/input)) worked out at 0.225.
In the case of “GATGATTGTTCTCCCAGCTGATGAATTACATTTGTCGAGTAAACAAATTTTCCTAATCTTTCTGTTCAAGCGCCATCTAC” it was 1.61; in that of “GATGATTGTTCTCCCAGCTGATGAATTCATGCGCTCGAGTAAACAAATTTTCCTAATCTTTCTGTTCAAGCGCCATCTAC”, 0.943.
The same measure for “GATGATTGTTCTCCCAGCTGATGAATTGATGACATCGAGTAAACAAATTTTCCTAATCTTTCTGTTCAAGCGCCATCTAC”: 1.05; for “GATGATTGTTCTCCCAGCTGATGAATTGACACACTCGAGTAAACAAATTTTCCTAATCTTTCTGTTCAAGCGCCATCTAC”: 0.655.
With “GATGATTGTTCTCCCAGCTGATGAATTAGGCTAGTCGAGTAAACAAATTTTCCTAATCTTTCTGTTCAAGCGCCATCTAC”, the binding signal (RPM ratio (pull-down/input)) was found to be 0.876.
For “GATGATTGTTCTCCCAGCTGATGAATTTGGAGGGTCGAGTAAACAAATTTTCCTAATCTTTCTGTTCAAGCGCCATCTAC”, the binding signal (RPM ratio (pull-down/input)) turned out to be 0.55.
Turning to “GATGATTGTTCTCCCAGCTGATGAATTTGCCATTTCGAGTAAACAAATTTTCCTAATCTTTCTGTTCAAGCGCCATCTAC”, the binding signal (RPM ratio (pull-down/input)) was 2.91.
With “GATGATTGTTCTCCCAGCTGATGAATTAGTCAGTTCGAGTAAACAAATTTTCCTAATCTTTCTGTTCAAGCGCCATCTAC”, the binding signal (RPM ratio (pull-down/input)) is 0.678.
In the case of “GATGATTGTTCTCCCAGCTGATGAATTCTCACAGTCGAGTAAACAAATTTTCCTAATCTTTCTGTTCAAGCGCCATCTAC”, the binding signal (RPM ratio (pull-down/input)) turned out to be 0.207.
For “GATGATTGTTCTCCCAGCTGATGAATTAACTGGCTCGAGTAAACAAATTTTCCTAATCTTTCTGTTCAAGCGCCATCTAC”, the binding signal (RPM ratio (pull-down/input)) is 0.213.
As for “GATGATTGTTCTCCCAGCTGATGAATTAGGTCCATCGAGTAAACAAATTTTCCTAATCTTTCTGTTCAAGCGCCATCTAC”, the binding signal (RPM ratio (pull-down/input)) was determined as 0.371.
For the sequence “GATGATTGTTCTCCCAGCTGATGAATTTAGAATTTCGAGTAAACAAATTTTCCTAATCTTTCTGTTCAAGCGCCATCTAC”, the binding signal (RPM ratio (pull-down/input)) was 1.26.
As for “GATGATTGTTCTCCCAGCTGATGAATTCCTAAGCTCGAGTAAACAAATTTTCCTAATCTTTCTGTTCAAGCGCCATCTAC”, the binding signal (RPM ratio (pull-down/input)) was 0.213.
In the case of “GATGATTGTTCTCCCAGCTGATGAATTTGGTAACTCGAGTAAACAAATTTTCCTAATCTTTCTGTTCAAGCGCCATCTAC” it was 1.38.
For the sequence “GATGATTGTTCTCCCAGCTGATGAATTCCTACGGTCGAGTAAACAAATTTTCCTAATCTTTCTGTTCAAGCGCCATCTAC”, the binding signal (RPM ratio (pull-down/input)) worked out at 0.213.
As for “GATGATTGTTCTCCCAGCTGATGAATTTGATGATTCGAGTAAACAAATTTTCCTAATCTTTCTGTTCAAGCGCCATCTAC”, the binding signal (RPM ratio (pull-down/input)) was determined as 3.46.
Turning to “GATGATTGTTCTCCCAGCTGATGAATTTCCGAAATCGAGTAAACAAATTTTCCTAATCTTTCTGTTCAAGCGCCATCTAC”, the binding signal (RPM ratio (pull-down/input)) worked out at 0.293.
Turning to “GATGATTGTTCTCCCAGCTGATGAATTCAACCGATCGAGTAAACAAATTTTCCTAATCTTTCTGTTCAAGCGCCATCTAC”, the binding signal (RPM ratio (pull-down/input)) was 0.253.
In the case of “GATGATTGTTCTCCCAGCTGATGAATTGGACGTATCGAGTAAACAAATTTTCCTAATCTTTCTGTTCAAGCGCCATCTAC” it was 0.508; in that of “GATGATTGTTCTCCCAGCTGATGAATTACAGTCCTCGAGTAAACAAATTTTCCTAATCTTTCTGTTCAAGCGCCATCTAC”, 0.525.
In the case of “GATGATTGTTCTCCCAGCTGATGAATTCCTCTTTTCGAGTAAACAAATTTTCCTAATCTTTCTGTTCAAGCGCCATCTAC”, the binding signal (RPM ratio (pull-down/input)) worked out at 0.248.
With “GATGATTGTTCTCCCAGCTGATGAATTTGGCTACTCGAGTAAACAAATTTTCCTAATCTTTCTGTTCAAGCGCCATCTAC”, the binding signal (RPM ratio (pull-down/input)) stood at 1.71.
For “GATGATTGTTCTCCCAGCTGATGAATTTGATCCTTCGAGTAAACAAATTTTCCTAATCTTTCTGTTCAAGCGCCATCTAC”, the binding signal (RPM ratio (pull-down/input)) is 0.39.
In the case of “GATGATTGTTCTCCCAGCTGATGAATTTGTTCGATCGAGTAAACAAATTTTCCTAATCTTTCTGTTCAAGCGCCATCTAC”, the binding signal (RPM ratio (pull-down/input)) amounted to 0.601.
With “GATGATTGTTCTCCCAGCTGATGAATTAAGATTGTCGAGTAAACAAATTTTCCTAATCTTTCTGTTCAAGCGCCATCTAC”, the binding signal (RPM ratio (pull-down/input)) was 1.03.
